B1: DYNLL1 wild-type recombinant protein (natural protein)
chain: not shown
B2: DYNLL[…]A recombinant protein (natural protein)
chain: not shown

Molecular target: the molecule itself
Assay: SEC + other: SEC-SAXS

Protein | stoichiometry N
B1 | 2
B2 | 2

From PMC10686051 (Nature structural & molecular biology, 2023)
